SMILES strings stand for the structures. In all, about 45,000 compounds went through this assay and about 65 (0.1%) were called active. Calls follow the shape of the dose curve; as a rule, active = well fitted activation curve with a large enough effect; inconclusive = small, poorly fitted or top-dose-only effect; inactive = no such curve, though single readings can be large or run the other way. The list shows a part of the results.

In this test the target is Galactocerebrosidase (Homo sapiens) (UniProt P54803). Briefly: A Novel Cell-Based Assay to Identify Small Molecules for B -Galactocerebrosidase. Also: 0% is about no effect; nearly all actives have a fitted effect of over 65% in size. Conditions: 145M-Twi-hGALC-G270D cells, HMU-beta-Gal fluorescence, 48 h; series mostly up to 57.5 µM; activation: at the top concentration. The method in brief: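 qHTS, 1536-well; 145M-Twi-hGALC-G270D cells (WT line also made) in DMEM/F12 + 10% FBS; compound incubation on live cells; HMU-β-gal 0.1 mM final, pH 5.2, NaTC; carbonate stop; fluorescence increase = enhanced residual activity.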
Sequence of UniProt P54803 (P54803 whole entry, looked up): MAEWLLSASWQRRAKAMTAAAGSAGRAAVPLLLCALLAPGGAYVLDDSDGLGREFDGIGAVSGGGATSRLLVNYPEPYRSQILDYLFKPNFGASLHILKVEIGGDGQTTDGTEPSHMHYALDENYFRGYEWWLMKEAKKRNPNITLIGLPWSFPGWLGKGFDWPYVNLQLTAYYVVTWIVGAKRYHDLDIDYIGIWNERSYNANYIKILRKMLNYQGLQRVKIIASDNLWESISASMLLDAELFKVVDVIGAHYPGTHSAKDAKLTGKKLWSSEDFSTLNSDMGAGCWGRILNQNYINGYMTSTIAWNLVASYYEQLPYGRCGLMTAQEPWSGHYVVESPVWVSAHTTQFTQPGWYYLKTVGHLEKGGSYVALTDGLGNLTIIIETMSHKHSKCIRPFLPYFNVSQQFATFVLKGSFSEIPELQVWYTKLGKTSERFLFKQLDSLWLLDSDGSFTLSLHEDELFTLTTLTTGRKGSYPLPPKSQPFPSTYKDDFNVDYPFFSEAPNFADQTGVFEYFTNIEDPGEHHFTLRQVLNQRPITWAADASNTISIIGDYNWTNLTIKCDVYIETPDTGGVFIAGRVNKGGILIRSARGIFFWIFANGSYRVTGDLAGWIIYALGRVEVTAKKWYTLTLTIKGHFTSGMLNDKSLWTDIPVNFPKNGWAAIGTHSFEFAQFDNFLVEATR
As for `COc1ccc(S(=O)(=O)N2CCC(C(=O)Nc3cc(C(F)(F)F)ccc3Cl)CC2)cc1`, the “activation” value was inactive: -11.6%. For `O=c1[nH]c(=O)n([C@H]2C[C@H](O)[C@@H](CO)O2)cc1F`, the “activation” value is inactive: -16%. Consider `COc1ccc(OC)c2sc(N3CCN(C(=O)C4COc5ccccc5O4)CC3)nc12` (stereo not drawn), for which the “activation” value was inactive: -6.85%.

Turning to `Cc1ccc(C2c3c(oc4ccccc4c3=O)C(=O)N2c2nnc(C)s2)cc1` (stereo not drawn), the “activation” value was inactive: -16.3%. As to `COc1ccc(C)cc1Nc1ncnc2c1c(-c1ccccc1)cn2-c1ccc(C)cc1`, the “activation” value was inactive: -10.5%. As for `O=c1c2sc3ccccc3c2n(Cc2ccccc2)c(=O)n1CCc1ccccc1`, the figure is inactive: -4.94%; as for `CCN(CCCNC(=O)CN1N=C(c2ccccc2)CCC1=O)c1ccccc1`, inactive: 2.53%; as for `CC(C)CCNC(=O)C(Cc1ccccc1)NS(=O)(=O)c1ccc2c(c1)c(=O)n(C)c(=O)n2C` (stereo not drawn), inactive: -9.4%. Turning to `Cc1ccc(S(=O)(=O)C(CNC(=O)COc2ccccc2)c2ccco2)cc1` (stereo not drawn), the “activation” value is inactive: -21.8%.

Turning to `CCCN(CCC)C(=O)Cn1c(=O)n(CCCCCC(=O)NCc2ccccc2Cl)c(=O)c2sccc21`, the “activation” value is inactive: -5.78%. Take `CCCOc1ccc(-c2cc(C(F)(F)F)c(C#N)c(SCCC(=O)O)n2)cc1`: the “activation” value is inactive: -9.62%. Regarding `Cc1ccc(CNC(=O)CSc2nc3n[nH]c(C)c3c(=N)n2-c2ccccc2Cl)cc1`, the “activation” value is inactive: -11.6%.

Turning to `O=C(Nc1ccccc1C(=O)OCc1cc(=O)n2nc(C3CC3)sc2n1)c1cccc(F)c1`, the “activation” value is inactive: -9.57%. The value for `CS(=O)(=O)N1CCc2cc(C(=O)Nc3ccc(C(F)(F)F)cc3)ccc21` was inactive: -7.12%; that for `Cc1cc(C)n(-c2nc3cc(Cl)ccc3nc2N2CCN(c3ccccc3F)CC2)n1` was inactive: -6.01%.

As for `CCOCCCn1c(SCC(=O)Nc2ccccc2Cl)nc2c(oc3ccccc32)c1=O`, the “activation” value was inactive: -15.8%. Regarding `Cc1ccccc1OCCCCn1nnc2sc3c(c2c1=O)CCC(C)C3` (stereo not drawn), the “activation” value was inactive: -19%. Regarding `Cc1ccc(CCNC(=O)c2ccc3c(c2)nc2n3CCOC2)cc1`, the “activation” value was inactive: 0.206%. In the case of `Cc1nc2sccn2c(=O)c1S(=O)(=O)Nc1cc(C(F)(F)F)ccc1Cl`, the “activation” value was inactive: -13.3%. As to `CN1C(=O)C2(SCC(=O)N2c2ccc(Cl)cc2)c2ccccc21` (stereo not drawn), the “activation” value was inactive: -15.4%.

Regarding `COCCNC(=O)c1ccc(-c2nc(CS(=O)(=O)c3ccccc3)c(C)o2)cc1`, the “activation” value is inactive: -16.7%. As for `COc1ccccc1CNC(=O)CSc1nnc(C)c2c(C)n(-c3ccccc3)nc12`, the figure is inactive: -17.1%.

For the compound `O=C(Nc1ccc(F)c(Cl)c1)N1CCC(CN2CCOCC2)CC1`, the “activation” value is inactive: 0.509%. The value for `CCc1nn2c(=O)c(S(=O)(=O)Nc3ccc(C(C)C)cc3)c(C)nc2s1` was inactive: -7.98%. Turning to `CNNCc1ccc(C(=O)NC(C)C)cc1`, the “activation” value is inactive: -7.81%. Consider `CCc1ccc(-n2nc3ccc(NC(=O)COc4ccc(OC)cc4)cc3n2)cc1`, for which the “activation” value is inactive: -24.8%. In the case of `Nc1ccc(C(=O)Oc2ccccc2)c(O)c1`, the “activation” value is inactive: -11.4%. Regarding `O=C(CSc1nc2c(c(=O)[nH]1)CN(Cc1ccc3c(c1)OCO3)CC2)Nc1ccccc1Cl`, the “activation” value is inactive: -22%. Take `CCOc1ccc(NC(=O)CSc2nc3ccsc3c(=O)n2CCCCCC(=O)O)cc1`: the “activation” value was inactive: -8.6%.

In the case of `CCOc1ccc(NCc2nc3ccccc3n2CCOc2ccc(C)cc2)cc1`, the “activation” value is inactive: -2.37%. The value for `CC(=O)N1CCCc2cc(S(=O)(=O)N3CCCC(C(=O)NCc4ccc(C)cc4)C3)ccc21` (stereo not drawn) was inactive: -21.9%.

In the case of `Cc1ccc2oc(C(=O)N(Cc3sccc3C)C3CCS(=O)(=O)C3)c(C)c2c1` (stereo not drawn), the “activation” value is inactive: -6.53%. Turning to `CCOc1ccc(Nc2c(S(=O)(=O)c3ccc(C)cc3)cnc3ccc(F)cc23)cc1`, the “activation” value is inactive: -2.28%.

`COc1cccc(CNC(=O)c2nc(Cn3nc(C)c(Br)c3C)no2)c1`: the “activation” value was inactive: -2.35%. As for `COc1ccccc1CNC(=O)C(=O)NCC(c1cccs1)S(=O)(=O)c1cccs1` (stereo not drawn), the figure is inactive: -31.1%. `COc1ccc(-n2c(=O)c3c4c(sc3n(C)c2=O)CN(C(C)=O)CC4)cc1`: the “activation” value is inactive: -9.17%. Regarding `O=c1cc(-c2ccccc2)n2c(SCc3ccccc3Cl)nnc2[nH]1`, the “activation” value is inactive: -11.4%.

For `C[N+]1(C)CCC(=C(c2ccccc2)c2ccccc2)CC1`, the “activation” value was inactive: -18.9%.

Regarding `CCCCN(C)C(=O)CSc1nc2ccccc2nc1Cc1ccc(C)cc1`, the “activation” value was inactive: 16.8%. As for `CCOc1ccc(NC(=O)c2cc(S(=O)(=O)N3CCN(c4ccccc4F)CC3)ccc2F)cc1`, the figure is inactive: -8.55%; as for `Cc1ccc2[nH]c(=O)c3cc(C(=O)NC4CCC(C)CC4)sc3c2c1` (stereo not drawn), inactive: -21.4%; as for `CC(C)OCc1cc(CN2CCN(c3cccc(C(F)(F)F)c3)CC2)c(O)c2ncccc12`, inactive: -20.1%. As for `Cc1ccc(CCNC(=O)CN(c2ccc(C)cc2)S(=O)(=O)N(C)C)cc1`, the figure is inactive: -27.6%; as for `Cc1c(Cl)cccc1NC(=O)CSc1nc(=O)n(Cc2ccco2)c2c1CCC2`, inactive: 9.73%; as for `COc1ccccc1C(=O)Nc1nnc2n1CCS2`, inactive: -23.5%.

`COc1cccc2c1cc1c(=O)n(CC(=O)NCc3ccco3)nc(C)n12`: the “activation” value was inactive: 7.9%. As for `Cc1cccc(N(C)S(=O)(=O)c2cc3[nH]c(=O)c(=O)[nH]c3cc2C)c1`, the figure is inactive: -2.24%; as for `CCCCC(=O)Nc1nnc(S(=O)(=O)N(C)Cc2ccccc2)s1`, inactive: -18%; as for `CCCCCNC(=O)C1CCC(Cn2c(=O)c3sccc3n(CC(=O)NCc3cccc(OC)c3OC)c2=O)CC1` (stereo not drawn), inactive: -3.85%. The value for `CN(C)c1ccc(CNC(=O)C2CCN(Cc3cc4ccccc4n3Cc3ccccc3)CC2)cc1` was inactive: -9.48%. As for `CCSc1nnc2c(n1)OC(c1ccc(OC)c(OC)c1)N(C(C)=O)c1ccccc1-2` (stereo not drawn), the figure is inactive: -5.33%. For `COc1ccc(Cl)cc1NC(=O)CSc1ccc2nnc(CCNS(=O)(=O)c3ccccc3)n2n1`, the “activation” value was inactive: -6.45%.

Turning to `Cc1ccc(-c2noc(CSc3nnc(C)n3-c3ccc(C)c(C)c3)n2)cc1`, the “activation” value was inactive: 2.04%. As for `NS(=O)(=O)c1cc2c(cc1Cl)NCNS2(=O)=O`, the figure is inactive: -13.1%; as for `O=C(COc1ccc(F)cc1)OCc1cc(=O)n2nc(-c3cccs3)sc2n1`, inactive: -14.6%. The value for `CC(C)CN(CC(C)C)CC(O)Cn1cc(/C=C/C(=O)c2ccccc2)c2ccccc21` (stereo not drawn) was inactive: -13.4%. As for `COc1cccc(CNS(=O)(=O)c2c(C(=O)N3CCC(C)CC3)c(C)n(C)c2C)c1`, the figure is inactive: -11%. Consider `COc1ccccc1CNC(=O)COCc1cc(-c2ccc3c(c2)OCO3)on1`, for which the “activation” value is inactive: -15.3%. The value for `CCOc1ccc(S(=O)(=O)Nc2ccc3oc4c(c3c2)CC(C)CC4)cc1` (stereo not drawn) was inactive: -16.7%. The value for `COc1ccc(/C=C(\C#N)c2nc3ccccc3c(=O)[nH]2)cc1OC` was inactive: -8.35%. Turning to `COc1ccc(C(=O)NCc2ccc3c(c2)CCN3C(=O)c2ccc(F)cc2)cc1`, the “activation” value is inactive: -12.9%. As for `NC(N)=N/N=C/c1c(Cl)cccc1Cl`, the figure is inactive: -11.7%; as for `CCOc1ccccc1CNC(=O)Cn1nc(N2CCN(c3ccccc3)CC2)ccc1=O`, inactive: -10.8%. As for `COc1ccc(C)c2sc(NC(=O)c3ccc(S(=O)(=O)N4CCCC4)cc3)nc12`, the figure is inactive: -15.8%; as for `CCc1ccc(NC(=O)C2=CC(c3cccs3)=NS(=O)(=O)N2C)cc1`, inactive: -11%.

Turning to `COc1cc(NS(=O)(=O)c2c(C)nc3sc(C)c(C)n3c2=O)cc(OC)c1`, the “activation” value was inactive: -13.4%. The value for `CN(C)CCC=C1c2ccccc2C=Cc2ccccc21` was inactive: -15.3%; that for `CCN1CCN(c2ncnc3c2cnn3-c2cccc(C)c2)CC1` was inactive: -21.8%; that for `O=C(NCc1ccco1)c1ccc(Cn2c(SCc3ccccc3F)nc3cccnc32)cc1` was inactive: -8.01%. As for `O=C(CSc1ncccc1C(=O)Oc1ccccc1Cl)Nc1ccccc1Cl`, the figure is inactive: -11.6%; as for `CN(C)c1ccc(CNC(=O)C2COc3ccccc3C2)cc1` (stereo not drawn), inactive: -14%.

As to `Cn1nnnc1SCCCNCc1cccc(OCc2ccccc2)c1`, the “activation” value is inactive: -10.9%.

Regarding `Cc1c(C(=O)OCc2ccccc2)[nH]c2c1C(=O)CC(c1ccc(Cl)cc1)C2` (stereo not drawn), the “activation” value was inactive: -20.7%.

As for `CC1CCN(S(=O)(=O)c2ccc3c(c2)N(CC(=O)NCC(C)c2ccccc2)C(=O)CO3)CC1` (stereo not drawn), the “activation” value was inactive: -6.15%. Take `O=C(NCc1ccc(Cl)cc1)NC1COc2ccccc2C1` (stereo not drawn): the “activation” value was inactive: -6.5%.

Regarding `CCOc1ccc(C(=O)c2oc3ccccc3c2NC(=O)c2cc(-c3ccc(C)cc3)on2)cc1`, the “activation” value is inactive: -13.2%.

Regarding `Cc1ccc(-c2cc(C(F)(F)F)n3ncc(-c4ccccc4)c3n2)cc1`, the “activation” value was inactive: -12.2%.

On to `O=C(NC1CCCCC1)c1ccc2c(c1)N(Cc1ccccc1Cl)C(=O)c1ccccc1S2`, for which the “activation” value is inactive: -4.35%. As for `COc1ccc(CCNC(=O)Cn2cc(S(=O)(=O)Cc3ccc(F)cc3)c3ccccc32)cc1OC`, the figure is inactive: -9.53%; as for `CCOc1ccccc1NC(=O)C1CCCN1S(=O)(=O)c1ccc2nc(-c3ccccc3)[nH]c2c1` (stereo not drawn), inactive: -10.7%.

Consider `CN(C)CCc1c[nH]c2ccc(C[C@H]3COC(=O)N3)cc12`, for which the “activation” value was inactive: -31.5%. Consider `Cc1ccc(S(=O)(=O)CC(=O)N2CCN(c3nc4c(F)cccc4s3)CC2)cc1`, for which the “activation” value is inactive: -4.96%. `CCCCN(C)CCNC(=O)c1cc2c(=O)n(C)c3ccccc3c2n1C`: the “activation” value was inactive: -14.8%. The value for `COc1ccc(CNC(=O)CCc2c(C)c3cc4c(C)coc4c(C)c3oc2=O)cc1OC` was inactive: -1.75%. As for `N#Cc1ccccc1NS(=O)(=O)c1ccc(N2CCCCS2(=O)=O)cc1`, the figure is inactive: -5.82%. For the compound `CCCc1nn2c(=O)cc(COC(=O)c3ccc(NC(=O)COc4ccccc4)cc3)nc2s1`, the “activation” value is inactive: -22.5%. As for `CN1C(=O)c2ccccc2Sc2ccc(NC(=O)c3ccc(C(F)(F)F)cc3)cc21`, the figure is inactive: -11.9%; as for `COC(=O)c1cc2oc3ccccc3c2n1Cc1ccc(Cl)cc1`, inactive: -15.8%; as for `COc1ccc(-c2nc3scc(CCNS(=O)(=O)c4ccc(F)cc4C)n3n2)cc1`, inactive: -10.7%. As for `CCn1cc(C(=O)N2CCN(c3ccccc3)CC2)c(=O)c2cc(S(=O)(=O)N3CCOCC3)ccc21`, the figure is inactive: -12.7%; as for `CCC(Oc1ccc(F)cc1)C(=O)Nc1c(C(=O)c2ccc(C)cc2)oc2ccccc12` (stereo not drawn), inactive: -12.2%; as for `CCn1c2c(c(=O)n3ncc(C(=O)N4CCN(c5ccc(Cl)cc5)CC4)c13)CN(Cc1ccc(OC)cc1)CC2`, inactive: -4.39%. Consider `Cc1ccc(Cn2c(CO)cnc2SCC(=O)Nc2ccc(C)c(Cl)c2)cc1`, for which the “activation” value is inactive: -14.2%. Turning to `COc1ccc(N(C)C(=O)c2cn(C)c(=O)c3cc(OC)c(OC)cc23)cc1`, the “activation” value was inactive: 15.8%.

Take `COc1ccc(NC(=O)c2ccc3nc(C(C)C)oc3c2)cc1OC`: the “activation” value is inactive: -21.7%. As for `Cc1ccc(-c2ccc(=O)n(CCC(=O)NCCc3ccccc3)n2)cc1`, the figure is inactive: -6.06%. As for `COc1ccc(Nc2cc(C(=O)NCCCN3CCN(c4ccccc4F)CC3)c3ccccc3n2)c(OC)c1`, the “activation” value was inactive: -23.8%. The value for `COc1cccc(CN2c3ccccc3-c3nc(SCC(=O)Nc4ccccc4Cl)ncc3S2(=O)=O)c1` was inactive: -0.917%.

(Values after PubChem BioAssay AID1159614 (National Center for Advancing Translational Sciences (NCATS), 2016).)
